# Source: the supplement of paper PMC5499739
# Whole data set: some 16,000 sequences, median “Z-score” near -0.37, cut for the highest 2% near 3.2. The list shows a part of the results.
# Tested on: RBM10 RRM1-ZnF (GST-tagged construct)
# Assay: RNAcompete 7-mer binding Z-score; higher = stronger binding preference
# Procedure, shortened: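 A designed pool of 241 399 RNAs, each up to 41 nt and transcribed from microarray-derived DNA templates, was used at 1.5 nmol with 20 pmol of GST-tagged RBM10 constructs. The mixture, in 1 ml Hepes pH 7.8 buffer with KCl, NaCl, glycerol, DTT, BSA and glutathione Sepharose beads, was held 30 min at 4°C and then washed four times for 2 min at 4°C. Bound RNA was read out by microarray hybridisation, and enrichment of each heptamer motif was scored as a one-sided Z-score over the probes carrying it.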
row,Sequence,RNAcompete 7-mer binding Z-score
1,CGCUAAA,-0.711
2,CAUAAUU,-0.86
3,UGAGAUU,-0.0155
4,AACUGAC,-0.526
5,CACGGGA,1.5
6,AAACAAU,-0.373
7,UUCUGAG,-0.461
8,CGUUACC,-0.6
9,UAACUUU,-0.889
10,CAAACCA,-0.659
11,AAACCAG,-0.324
12,UUACGAC,-0.668
13,GUUUAGG,1.32
14,UGACCAU,-0.691
15,UCACACA,-0.568
16,GGCUGAC,0.173
17,UAUGUUA,-0.383
18,UCAAUUG,-0.448
19,CACCGUG,-0.298
20,CGUACAU,-0.373
21,CCGUUGG,0.342
22,UCCACUG,-0.529
23,UUCCUGA,-0.763

row,Sequence,RNAcompete 7-mer binding Z-score
1,ACAUUGG,0.553
2,CAGCGAU,-0.262
3,AUUCUUA,-0.72
4,UCCAGCU,-0.945
5,ACGAGCU,-0.37
6,GGACAUA,0.761
7,UGGGGGC,3.07
8,UUAGAAC,-0.448
9,UCACUGA,-0.493
10,AUUCAUC,-0.766
11,GCAUAAC,-0.301
12,AUUCCCA,-0.756
13,GGGUGCG,2.96
14,AAAACGU,-0.201
15,GUCAGAG,0.313
16,AGUGGGG,4.49
17,AUCCACA,-0.75
18,UGGCCUC,-0.496
19,GGGUUCA,1.17
20,AAACUCG,-0.737
21,AUCGGCU,-0.659
22,UUCGCGG,-0.116
23,GGCGGAG,2.4

row,Sequence,RNAcompete 7-mer binding Z-score
1,GAACGUA,0.115
2,AGAAAAC,-0.298
3,UCUUAAA,-0.805
4,UCUUUGG,-0.327
5,CUUGUUC,-0.899
6,AGACCUA,-0.87
7,UUUUUAU,-0.808
8,GCCGGAC,-0.327
9,UUCGUGU,-0.483
10,AUUCCUC,-0.707
11,AGAUUUA,-0.305
12,GGCCUAU,-0.565
13,AGCCGAA,-0.798
14,GAGACAU,0.186
15,ACCGCAU,-0.759
16,UAAGAUA,-0.168
17,CUGUGUA,-0.285
18,CCGUCUU,-1
19,UUGGCGC,0.0788
20,UAGAUUU,-0.652
21,UACGUGC,-0.331
22,AGCCUUC,-0.698
23,CUGAGCU,-0.431

row,Sequence,RNAcompete 7-mer binding Z-score
1,UCACUAA,-0.642
2,GCCUCAU,-0.938
3,GUCAAGU,-0.00246
4,GUGGUUG,2.75
5,GGAUUUU,0.043
6,GCGAACC,-0.366
7,UAUUUGU,-0.542
8,AACGCUG,-0.5
9,GGCGCAA,0.309
10,AUUUGCG,-0.675
11,CUGAUCC,-0.763
12,CGUUGCC,-0.6
13,UGCAUCG,-0.396
14,CAACUUA,-0.727
15,GGCAACA,0.313
16,CAUGGCA,-0.0707
17,CAAUAGG,0.703
18,ACCCGAC,-0.746
19,CAUGGUG,1.35
20,GCCUUAC,-0.789
21,CUGAUAU,-0.61
22,UGAGUCU,-0.308
23,GGGUAGU,3.11

row,Sequence,RNAcompete 7-mer binding Z-score
1,CUUCGCG,-0.714
2,GCUCGCA,-0.379
3,ACGUCCG,-0.626
4,GAUGUAG,1.51
5,UACCUCC,-0.662
6,AUAAGAG,0.254
7,CAUUGGG,0.8
8,CCAAUUG,-0.5
9,ACCAUGA,-0.675
10,UAUAGUC,-0.503
11,CUGCGCG,-0.262
12,AACCCUA,-0.844
13,GAACCCG,-0.704
14,CAGGCCU,-0.662
15,AUUGGGC,1.49
16,GUCGGGU,1.64
17,ACGCUAA,-0.578
18,ACCCAAG,-0.613
19,GUGCCGG,0.56
20,CAUGUUG,-0.526
21,GUUUGCU,-0.347
22,GUUGACA,0.215
23,CUUUACU,-0.746

row,Sequence,RNAcompete 7-mer binding Z-score
1,CGAUAGG,1.23
2,UUGCGUC,-0.584
3,UUAAGAA,-0.301
4,UUCAAUU,-0.727
5,CAGUAAA,-0.366
6,UGUUGGG,2.52
7,UGGCAAC,0.176
8,ACUGGUA,0.358
9,GCGGACA,0.803
10,AGUUAAA,-0.0804
11,CUAGUGA,-0.217
12,GGCCCUA,-0.571
13,GGUGCUG,2.12
14,CGUCUUG,-0.691
15,GCCGUAC,-0.707
16,GUAUCCG,-0.5
17,CUCUAUG,-0.769
18,ACUCCAA,-0.714
19,CCAUAGA,-0.617
20,AGUGCCU,-0.591
21,UAGGCAA,0.553
22,UUAUGGA,1
23,CAAAUUC,-0.893

row,Sequence,RNAcompete 7-mer binding Z-score
1,UAAGUCU,-0.633
2,CGGGGGG,3.06
3,GGCCUCG,-0.0479
4,AACGCAC,-0.75
5,UGGACAU,0.651
6,UCGUCUU,-0.678
7,CGUCGUA,-0.243
8,UAGCCUA,-0.798
9,AAUACCU,-0.711
10,AUGCGCA,-0.194
11,UAUAGGU,0.683
12,CGGCAUA,-0.21
13,AGUCGCA,-0.321
14,AGCAUCA,-0.262
15,GUAAUCA,0.017
16,CAAACGG,0.527
17,UGAGGCU,0.3
18,GACCAAU,-0.639
19,ACCUUAC,-1
20,GUCCCGA,-0.522
21,AUUGUCA,-0.441
22,UUAUCUU,-0.873
23,UCAGAUU,-0.636

row,Sequence,RNAcompete 7-mer binding Z-score
1,UAACGCA,-0.5
2,UUAGUGU,-0.0772
3,CUGGGGU,2.18
4,UAGAAGC,-0.0447
5,CACUUCU,-0.815
6,CAGCCAA,-0.493
7,ACCACAC,-0.402
8,AUGGGAG,3.64
9,GUCGUUG,0.0918
10,UCUGUCU,-0.756
11,GGCCGUC,-0.441
12,UAAAGGU,1.42
13,AGUGCGG,1.41
14,AGGGACA,2.02
15,AACAGGU,1.49
16,UCCUAAC,-0.86
17,CCCCCCG,0.0365
18,AGGUCAA,0.274
19,UUUGACU,-0.714
20,GCAGGAG,2.47
21,CUAGAGG,0.319
22,UUCCGAC,-0.789
23,CGGGCUG,0.573
